{"source": "paper PMC4260354", "key": {"[1]": {"molecular_target": "T1, AGO4 (Arabidopsis (endogenous in the SUVR2-Flag transgenic plants)) (UniProt Q9ZVD5)", "T1 sequence": "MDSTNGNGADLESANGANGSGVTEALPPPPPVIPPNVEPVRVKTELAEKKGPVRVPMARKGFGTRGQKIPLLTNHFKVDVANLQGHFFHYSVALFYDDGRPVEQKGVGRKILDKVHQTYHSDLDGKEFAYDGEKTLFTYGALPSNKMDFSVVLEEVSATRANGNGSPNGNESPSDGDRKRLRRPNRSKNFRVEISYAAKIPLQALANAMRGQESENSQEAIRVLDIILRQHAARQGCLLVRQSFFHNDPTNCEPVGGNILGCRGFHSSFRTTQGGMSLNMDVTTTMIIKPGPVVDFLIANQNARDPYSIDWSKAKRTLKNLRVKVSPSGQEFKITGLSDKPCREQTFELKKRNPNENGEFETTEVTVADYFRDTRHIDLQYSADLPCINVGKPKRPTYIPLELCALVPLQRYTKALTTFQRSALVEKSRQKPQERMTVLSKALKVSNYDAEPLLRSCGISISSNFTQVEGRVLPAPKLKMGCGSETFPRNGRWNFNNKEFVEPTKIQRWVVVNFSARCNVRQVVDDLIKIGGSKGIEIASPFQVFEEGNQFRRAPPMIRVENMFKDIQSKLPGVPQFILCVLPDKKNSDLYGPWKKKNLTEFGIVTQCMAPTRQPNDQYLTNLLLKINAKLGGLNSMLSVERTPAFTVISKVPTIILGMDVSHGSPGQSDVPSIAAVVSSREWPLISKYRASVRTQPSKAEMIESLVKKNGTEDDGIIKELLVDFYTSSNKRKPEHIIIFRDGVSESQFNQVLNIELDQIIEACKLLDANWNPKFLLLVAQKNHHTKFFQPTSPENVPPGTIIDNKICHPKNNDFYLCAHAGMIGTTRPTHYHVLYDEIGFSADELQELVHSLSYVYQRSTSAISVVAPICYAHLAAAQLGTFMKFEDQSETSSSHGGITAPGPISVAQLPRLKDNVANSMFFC", "experiment": "co-IP; protein extracts of Arabidopsis transgenic plants (or F1 hybrids with two tagged proteins); precipitated with anti-c-Myc agarose, anti-Flag M1 agarose or anti-AGO4 conjugated agarose; western blotting"}, "KTF1-Flag (Arabidopsis)": {"molecular_target": "T2, KTF1-Flag (Arabidopsis) (UniProt F4JW79)", "T2 sequence": "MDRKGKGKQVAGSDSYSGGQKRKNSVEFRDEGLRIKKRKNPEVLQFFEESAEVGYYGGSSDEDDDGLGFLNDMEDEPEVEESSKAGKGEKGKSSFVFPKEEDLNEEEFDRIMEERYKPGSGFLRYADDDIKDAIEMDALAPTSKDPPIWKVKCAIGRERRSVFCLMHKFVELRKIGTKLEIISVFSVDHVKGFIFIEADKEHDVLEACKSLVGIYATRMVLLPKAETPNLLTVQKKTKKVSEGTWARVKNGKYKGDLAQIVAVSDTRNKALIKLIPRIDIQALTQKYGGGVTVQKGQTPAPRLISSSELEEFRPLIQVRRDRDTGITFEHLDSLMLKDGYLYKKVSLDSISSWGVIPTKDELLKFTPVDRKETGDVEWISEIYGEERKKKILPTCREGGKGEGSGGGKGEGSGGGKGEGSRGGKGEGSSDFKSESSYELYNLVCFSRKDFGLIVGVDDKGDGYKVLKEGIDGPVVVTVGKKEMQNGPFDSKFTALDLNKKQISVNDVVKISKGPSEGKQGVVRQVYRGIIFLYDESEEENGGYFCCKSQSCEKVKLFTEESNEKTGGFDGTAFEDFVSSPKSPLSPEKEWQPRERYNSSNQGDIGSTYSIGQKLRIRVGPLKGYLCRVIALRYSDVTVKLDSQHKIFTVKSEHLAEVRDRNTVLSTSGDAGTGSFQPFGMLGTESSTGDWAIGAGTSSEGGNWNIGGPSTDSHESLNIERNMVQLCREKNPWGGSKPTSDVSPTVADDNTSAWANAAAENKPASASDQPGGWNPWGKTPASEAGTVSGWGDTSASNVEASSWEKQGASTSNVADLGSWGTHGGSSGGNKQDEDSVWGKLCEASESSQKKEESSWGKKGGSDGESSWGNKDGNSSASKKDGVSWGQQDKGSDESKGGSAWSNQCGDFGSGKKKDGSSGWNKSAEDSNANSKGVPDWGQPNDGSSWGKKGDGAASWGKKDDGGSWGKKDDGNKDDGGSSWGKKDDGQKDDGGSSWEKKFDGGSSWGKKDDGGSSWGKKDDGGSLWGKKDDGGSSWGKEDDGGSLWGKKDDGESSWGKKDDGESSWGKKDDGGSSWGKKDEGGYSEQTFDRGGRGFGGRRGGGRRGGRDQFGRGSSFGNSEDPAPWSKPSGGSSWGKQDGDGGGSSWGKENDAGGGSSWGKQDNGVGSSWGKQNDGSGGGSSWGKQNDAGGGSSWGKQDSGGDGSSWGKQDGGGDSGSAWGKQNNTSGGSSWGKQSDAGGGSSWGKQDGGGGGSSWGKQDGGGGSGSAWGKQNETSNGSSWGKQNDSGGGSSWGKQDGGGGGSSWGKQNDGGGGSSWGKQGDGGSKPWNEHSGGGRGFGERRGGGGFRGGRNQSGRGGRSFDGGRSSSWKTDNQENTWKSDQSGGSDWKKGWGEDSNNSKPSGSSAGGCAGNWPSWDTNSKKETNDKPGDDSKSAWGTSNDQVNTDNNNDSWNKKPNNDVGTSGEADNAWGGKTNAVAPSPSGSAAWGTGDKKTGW", "experiment": "co-IP; protein extracts of Arabidopsis transgenic plants (or F1 hybrids with two tagged proteins); precipitated with anti-c-Myc agarose, anti-Flag M1 agarose or anti-AGO4 conjugated agarose; western blotting"}, "SUVR2-Myc (Arabidopsis) [2]": {"molecular_target": "T3, SUVR2-Myc (Arabidopsis) (UniProt Q9FNC7)", "T3 sequence": "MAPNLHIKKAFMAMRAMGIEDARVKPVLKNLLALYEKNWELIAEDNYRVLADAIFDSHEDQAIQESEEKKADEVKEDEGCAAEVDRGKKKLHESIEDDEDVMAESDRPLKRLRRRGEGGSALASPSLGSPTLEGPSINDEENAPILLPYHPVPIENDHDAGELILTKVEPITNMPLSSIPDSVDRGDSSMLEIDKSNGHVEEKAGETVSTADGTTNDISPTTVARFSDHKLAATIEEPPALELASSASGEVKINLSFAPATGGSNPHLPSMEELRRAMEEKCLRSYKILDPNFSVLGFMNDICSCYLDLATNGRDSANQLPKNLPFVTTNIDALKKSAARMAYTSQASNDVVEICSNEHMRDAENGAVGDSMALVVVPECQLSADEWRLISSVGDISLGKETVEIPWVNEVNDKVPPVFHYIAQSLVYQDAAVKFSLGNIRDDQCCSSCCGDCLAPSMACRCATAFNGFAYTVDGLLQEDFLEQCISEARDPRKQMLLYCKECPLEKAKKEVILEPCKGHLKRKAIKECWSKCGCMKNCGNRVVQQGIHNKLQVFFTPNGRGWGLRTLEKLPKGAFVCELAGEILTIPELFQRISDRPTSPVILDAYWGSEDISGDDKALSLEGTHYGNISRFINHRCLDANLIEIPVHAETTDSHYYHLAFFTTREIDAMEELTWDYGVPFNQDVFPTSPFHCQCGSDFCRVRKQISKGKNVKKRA", "experiment": "co-IP; protein extracts of Arabidopsis transgenic plants (or F1 hybrids with two tagged proteins); precipitated with anti-c-Myc agarose, anti-Flag M1 agarose or anti-AGO4 conjugated agarose; western blotting"}, "SUVR2-Myc (Arabidopsis) [3]": {"molecular_target": "T3, SUVR2-Myc (Arabidopsis)", "experiment": "co-IP; protein extracts of Arabidopsis plants harboring two tagged proteins; anti-c-Myc agarose, anti-Flag M1 agarose or anti-AGO4 conjugated agarose; western blotting"}, "SUVR2-Myc (Arabidopsis) [4]": {"molecular_target": "T3, SUVR2-Myc (Arabidopsis)", "experiment": "SEC; gel filtration of plant protein; elution profiles of SUVR2-Myc, SUVR2-Flag, SUVR1-Flag, CHR19-Myc detected by western blotting with anti-Myc and anti-Flag antibody"}}, "note": "Results are given in words; binding and its absence hold for the method and conditions named. For part of these data: Binding seen in cells or lysates may run through a third protein. Some binding calls cover weakened binding; strength is not graded here. Tags and fused reporters may be left off the sequences shown."}
{"binder": "SUVR2-Flag (protein, UniProt Q9FNC7 1-717) MAPNLHIKKAFMAMRAMGIEDARVKPVLKNLLALYEKNWELIAEDNYRVLADAIFDSHEDQAIQESEEKKADEVKEDEGCAAEVDRGKKKLHESIEDDEDVMAESDRPLKRLRRRGEGGSALASPSLGSPTLEGPSINDEENAPILLPYHPVPIENDHDAGELILTKVEPITNMPLSSIPDSVDRGDSSMLEIDKSNGHVEEKAGETVSTADGTTNDISPTTVARFSDHKLAATIEEPPALELASSASGEVKINLSFAPATGGSNPHLPSMEELRRAMEEKCLRSYKILDPNFSVLGFMNDICSCYLDLATNGRDSANQLPKNLPFVTTNIDALKKSAARMAYTSQASNDVVEICSNEHMRDAENGAVGDSMALVVVPECQLSADEWRLISSVGDISLGKETVEIPWVNEVNDKVPPVFHYIAQSLVYQDAAVKFSLGNIRDDQCCSSCCGDCLAPSMACRCATAFNGFAYTVDGLLQEDFLEQCISEARDPRKQMLLYCKECPLEKAKKEVILEPCKGHLKRKAIKECWSKCGCMKNCGNRVVQQGIHNKLQVFFTPNGRGWGLRTLEKLPKGAFVCELAGEILTIPELFQRISDRPTSPVILDAYWGSEDISGDDKALSLEGTHYGNISRFINHRCLDANLIEIPVHAETTDSHYYHLAFFTTREIDAMEELTWDYGVPFNQDVFPTSPFHCQCGSDFCRVRKQISKGKNVKKRA", "values": [{"measurement": "binding", "setting": "[1]", "result": "no binding"}]}
{"binder": "SUVR2-Myc (protein, UniProt Q9FNC7 1-717) MAPNLHIKKAFMAMRAMGIEDARVKPVLKNLLALYEKNWELIAEDNYRVLADAIFDSHEDQAIQESEEKKADEVKEDEGCAAEVDRGKKKLHESIEDDEDVMAESDRPLKRLRRRGEGGSALASPSLGSPTLEGPSINDEENAPILLPYHPVPIENDHDAGELILTKVEPITNMPLSSIPDSVDRGDSSMLEIDKSNGHVEEKAGETVSTADGTTNDISPTTVARFSDHKLAATIEEPPALELASSASGEVKINLSFAPATGGSNPHLPSMEELRRAMEEKCLRSYKILDPNFSVLGFMNDICSCYLDLATNGRDSANQLPKNLPFVTTNIDALKKSAARMAYTSQASNDVVEICSNEHMRDAENGAVGDSMALVVVPECQLSADEWRLISSVGDISLGKETVEIPWVNEVNDKVPPVFHYIAQSLVYQDAAVKFSLGNIRDDQCCSSCCGDCLAPSMACRCATAFNGFAYTVDGLLQEDFLEQCISEARDPRKQMLLYCKECPLEKAKKEVILEPCKGHLKRKAIKECWSKCGCMKNCGNRVVQQGIHNKLQVFFTPNGRGWGLRTLEKLPKGAFVCELAGEILTIPELFQRISDRPTSPVILDAYWGSEDISGDDKALSLEGTHYGNISRFINHRCLDANLIEIPVHAETTDSHYYHLAFFTTREIDAMEELTWDYGVPFNQDVFPTSPFHCQCGSDFCRVRKQISKGKNVKKRA", "values": [{"measurement": "binding", "setting": "KTF1-Flag (Arabidopsis)", "result": "no binding"}]}
{"binder": "DRM2-Flag (protein, UniProt Q9M548 1-626) MVIWNNDDDDFLEIDNFQSSPRSSPIHAMQCRVENLAGVAVTTSSLSSPTETTDLVQMGFSDEVFATLFDMGFPVEMISRAIKETGPNVETSVIIDTISKYSSDCEAGSSKSKAIDHFLAMGFDEEKVVKAIQEHGEDNMEAIANALLSCPEAKKLPAAVEEEDGIDWSSSDDDTNYTDMLNSDDEKDPNSNENGSKIRSLVKMGFSELEASLAVERCGENVDIAELTDFLCAAQMAREFSEFYTEHEEQKPRHNIKKRRFESKGEPRSSVDDEPIRLPNPMIGFGVPNEPGLITHRSLPELARGPPFFYYENVALTPKGVWETISRHLFEIPPEFVDSKYFCVAARKRGYIHNLPINNRFQIQPPPKYTIHDAFPLSKRWWPEWDKRTKLNCILTCTGSAQLTNRIRVALEPYNEEPEPPKHVQRYVIDQCKKWNLVWVGKNKAAPLEPDEMESILGFPKNHTRGGGMSRTERFKSLGNSFQVDTVAYHLSVLKPIFPHGINVLSLFTGIGGGEVALHRLQIKMKLVVSVEISKVNRNILKDFWEQTNQTGELIEFSDIQHLTNDTIEGLMEKYGGFDLVIGGSPCNNLAGGNRVSRVGLEGDQSSLFFEYCRILEVVRARMRGS", "values": [{"measurement": "binding", "setting": "SUVR2-Myc (Arabidopsis) [2]", "result": "no binding"}, {"measurement": "binding", "setting": "SUVR2-Myc (Arabidopsis) [3]", "result": "no binding"}]}
{"binder": "SUVR1-Flag (protein, UniProt Q946J2 1-734) MAPNLRIKKACDAMKLLGISETKTRAFLRKLLKTYENNWDFIEEDAYKVLLDAIFDEADAQSTEKNKKEEEKKKKEEEKKSRSVATSRGRRKAPEPLVQDEEDDMDEDEFPLKRRLRSRRGRASSSSSSSSSYNNEDLKTQPEEEDEDDGVTELPPLKRYVRRNGERGLAMTVYNNASPSSSSRLSMEPEEVPPMVLLPAHPMETKVSEASALVILNDEPNIDHKPVISDTGNCSAPMLEMGKSNIHVQEWDWETKDILNDTTAMDVSPSSAIGESSEHKVAAASVELASSTSGEAKICLSFAPATGETTNLHLPSMEDLRRAMEEKCLKSYKIVHPEFSVLGFMKDMCSCYIDLAKNSTSQLLETETVCDMSKAGDESGAVGISMPLVVVPECEISGDGWKAISNMKDITAGEENVEIPWVNEINEKVPSRFRYMPHSFVFQDAPVIFSLSSFSDEQSCSTSCIEDCLASEMSCNCAIGVDNGFAYTLDGLLKEEFLEARISEARDQRKQVLRFCEECPLERAKKVEILEPCKGHLKRGAIKECWFKCGCTKRCGNRVVQRGMHNKLQVFFTPNGKGWGLRTLEKLPKGAFICEYIGEILTIPELYQRSFEDKPTLPVILDAHWGSEERLEGDKALCLDGMFYGNISRFLNHRCLDANLIEIPVQVETPDQHYYHLAFFTTRDIEAMEELAWDYGIDFNDNDSLMKPFDCLCGSRFCRNKKRSTKTMQILNKA", "values": [{"measurement": "binding", "setting": "SUVR2-Myc (Arabidopsis) [4]", "result": "binds"}, {"measurement": "binding", "setting": "SUVR2-Myc (Arabidopsis) [3]", "result": "binds"}]}
